Results taken from PubChem BioAssay (NCATS).
This is one part of the list. Further columns of the screen follow, without active or inactive calls. For some of these results: Compounds called inactive in the main read-out are mostly missing here. Words in brackets tell the shape of the fitted curve; partial curves, single points and poor fits give uncertain potencies.

Columns and labels:
[1] = qHTS drug screen for cell cycle checkpoint inhibitors in PARPi-resistant BRCA-mutant ovarian cancer cell lines. (AID 1963452); conditions: PEO1/OlaR viability, CellTiter-Glo luminescence, 96 h
Procedure, shortened: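 PEO1, PEO4 and PEO1/OlaR ovarian cancer cells, 600 per well, exposed 96 h at 37C to a dilution series. Viability read by CellTiter-Glo luminescence, normalized to DMSO and empty wells; activity summarized as Z-AUC.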

[2] = qHTS for identification of novel therapeutic agents for treatment of microphthalmiaassociated transcription factor (MiT) renal cell carcinoma (RCC) (AID 1963991); conditions: CellTiter-Glo, 48 h; for z-score: stronger effect = lower value
Procedure, shortened: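 Viability of three TFE3-fusion renal carcinoma lines measured by CellTiter-Glo after 48 h treatment with each of 1912 compounds at 11 concentrations. Responses scaled between DMSO (100%) and empty wells (0%) before curve fitting.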

[3] = measured here: PEO1 parental viability
[4] = TFE3-RCC UOK109 viability, measured here: UOK109 Z-AUC
[5] = TFE3-RCC viability, measured here: UOK124 Z-AUC
[6] = TFE3-RCC viability, measured here: UOK124 cell viability
[7] = TFE3-RCC viability, measured here: UOK145 Z-AUC
[8] = TFE3-RCC viability, measured here: UOK145 cell viability
Tags give direction and shape of the fitted curve.

| Structure (SMILES) | AC50 [1, 3] | AC50 ([1]; measured here: PEO4 viability) | z-score [2, 4] | z-score [2, 5] | AC50 [2, 6] | z-score [2, 7] | AC50 [2, 8] |
| --- | --- | --- | --- | --- | --- | --- | --- |
| Cn1cnc2c(F)c(Nc3ccc(Br)cc3F)c(C(=O)NOCCO)cc21 | 0.616 µM [falling, full curve, poor fit] | 2.19 µM [falling, full curve] | -1.79 | 0.0443 | 0.0662 µM [falling, partial curve, poor fit] | 0.561 |  |
| Cc1c(C(=O)Nc2ccc(N3C[C@@H](C)O[C@@H](C)C3)nc2)cccc1-c1ccc(OC(F)(F)F)cc1 | 11 µM [falling, partial curve] | 13.8 µM [falling, partial curve, poor fit] | -0.103 | -0.0441 | 18.7 µM [falling, partial curve] | 0.167 | 13.2 µM [falling, partial curve] |
| COc1cc(C)c(Sc2cnc(NC(=O)c3ccc(CNC(C)C(C)C)cc3)s2)cc1C(=O)N1CCN(C(C)=O)CC1 (centres undefined) | 13.8 µM [falling, partial curve] | 13.8 µM [falling, partial curve] | 1.05 | -0.695 | 16.6 µM [falling, partial curve] | -0.524 | 23.5 µM [falling, partial curve] |
| NC(=O)c1noc([C@H](CCCC2CCCCC2)CC(=O)NO)n1 | 27.5 µM [falling, single point] | 27.5 µM [falling, single point] | 0.307 | 0.472 | 20.9 µM [falling, partial curve] | 1.29 | 16.6 µM [falling, partial curve] |
| CCC(c1ccc(O)cc1)C(CC)c1ccc(O)cc1 (centres undefined) | 24.5 µM [falling, single point] | 24.5 µM [falling, single point] | 0.51 | 0.91 |  | 0.496 | 20.9 µM [falling, single point] |
| O=C(Nc1cccnc1)N1CCC(Cc2cccc(Oc3ccc(C(F)(F)F)cn3)c2)CC1 | 2.19 µM [falling, full curve] | 6.92 µM [falling, partial curve] | 0.333 | -0.102 | 14.8 µM [falling, partial curve, poor fit] | 0.605 | 20.9 µM [falling, partial curve, poor fit] |
| O=C(O)c1ccc(Nc2ncc3c(n2)-c2ccc(Cl)cc2C(c2c(F)cccc2F)=NC3)cc1 | 5.49 µM [falling, partial curve] | 0.219 µM [falling, full curve] | -0.942 | 0.229 |  | 0.0351 | 14.8 µM [falling, partial curve] |
| COc1cccc2c(NCc3ccccc3)nc(-n3c(N)nc4ccccc43)nc12 | 3.89 µM [falling, single point] | 2.75 µM [falling, full curve] | -0.101 | -1.5 | 5.26 µM [falling, full curve] | -0.268 | 10.5 µM [falling, full curve] |
| Cc1cnc(Nc2cccc(CN3CCOCC3)c2)nc1Nc1cccc(S(=O)(=O)NC(C)(C)C)c1 | 7.76 µM [falling, partial curve] | 1.55 µM [falling, full curve] | -1.1 | -0.679 | 10.5 µM [falling, partial curve] | -0.652 | 14.8 µM [falling, partial curve] |
| C[N+](C)([O-])CCNc1ccc(NCC[N+](C)(C)[O-])c2c1C(=O)c1c(O)ccc(O)c1C2=O | 6.16 µM [falling, partial curve] | 12.3 µM [falling, partial curve] | -0.234 | 1.66 |  | 0.198 | 18.7 µM [falling, partial curve] |
| N#CC[C@H](C1CCCC1)n1cc(-c2ncnc3[nH]ccc23)cn1 | 24.5 µM [falling, single point] | 27.5 µM [falling, single point] | 0.386 | 0.599 |  | 0.171 | 18.7 µM [falling, partial curve, poor fit] |
| Cc1cccc(-c2[nH]c(C(C)(C)C)nc2-c2ccc3c(c2)OCO3)n1 | 11 µM [falling, partial curve, poor fit] | 13.8 µM [falling, partial curve, poor fit] | 0.663 | 1.48 | 9.35 µM [falling, full curve] | 0.202 | 14.8 µM [falling, partial curve] |
